{"source": "PubChem BioAssay AID488969", "about": "(Vanderbilt High Throughput Screening Facility, 2010)", "note": "Whole data set: some 110,000 compounds, median “z-score” near -0.1, cut for the highest 2% near 2. The list shows a part of the results. Calls of active or inactive are those of the source.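 Rule for the calls: active = z-score in the third read window above 3 or below -3; inactive = the rest.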"}
{"target": "Metabotropic glutamate receptor 8 (Rattus norvegicus) (UniProt P70579)", "sequence (P70579 whole entry, looked up)": "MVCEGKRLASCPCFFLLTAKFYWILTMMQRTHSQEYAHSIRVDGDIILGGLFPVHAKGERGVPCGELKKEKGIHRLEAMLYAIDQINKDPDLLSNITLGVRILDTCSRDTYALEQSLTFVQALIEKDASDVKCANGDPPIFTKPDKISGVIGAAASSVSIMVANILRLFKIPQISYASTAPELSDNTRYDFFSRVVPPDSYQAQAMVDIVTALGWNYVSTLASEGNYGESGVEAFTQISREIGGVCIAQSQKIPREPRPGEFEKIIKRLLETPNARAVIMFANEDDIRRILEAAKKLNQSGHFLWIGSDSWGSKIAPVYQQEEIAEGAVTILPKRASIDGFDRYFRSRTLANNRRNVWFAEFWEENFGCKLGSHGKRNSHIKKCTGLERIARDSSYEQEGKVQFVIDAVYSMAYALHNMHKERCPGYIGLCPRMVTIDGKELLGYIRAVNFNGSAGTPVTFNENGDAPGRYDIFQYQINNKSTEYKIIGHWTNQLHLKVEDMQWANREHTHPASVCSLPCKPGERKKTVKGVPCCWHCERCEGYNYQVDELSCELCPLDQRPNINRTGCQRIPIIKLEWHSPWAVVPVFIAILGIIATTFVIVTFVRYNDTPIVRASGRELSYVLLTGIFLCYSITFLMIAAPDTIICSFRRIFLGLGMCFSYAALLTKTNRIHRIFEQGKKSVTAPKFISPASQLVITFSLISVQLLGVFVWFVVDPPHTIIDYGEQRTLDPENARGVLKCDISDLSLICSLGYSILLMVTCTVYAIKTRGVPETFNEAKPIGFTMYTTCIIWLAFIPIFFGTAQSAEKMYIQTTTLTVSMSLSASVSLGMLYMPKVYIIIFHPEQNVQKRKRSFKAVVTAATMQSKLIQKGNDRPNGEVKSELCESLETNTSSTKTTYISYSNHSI", "test": "rat mGluR8 modulators via GIRK flux, primary screen, cell-based, thallium flux, HTS (AID 488969)", "conditions": "HEK293 rat mGluR8, GIRK (G protein-gated inwardly rectifying potassium channel) thallium flux, FluoZin2; at 10 µM; stronger effect = higher value; submaximal glutamate (EC20) added with thallium"}
{"compound": "CCNS(=O)(=O)c1ccc(NC(=O)Nc2cccc(OC)c2)cc1", "z-score": 0.0126}
{"compound": "COc1ccc(/C=N/NC(=O)CCn2cnc(-c3ccccc3)c2-c2ccccc2)cc1OC", "z-score": -0.718}
{"compound": "Cc1ccc(NC(=O)CSc2nnc(-c3cnccn3)n2-c2ccccc2)cc1", "z-score": -0.0515}
{"compound": "Brc1ccc(OCc2ccccc2)c(CNCc2ccncc2)c1", "z-score": -0.155}
{"compound": "CCOC(=O)c1c(OCC)[nH]c2ccc(O)cc12", "z-score": 0.44}
{"compound": "CC(=O)Oc1cc(OC(C)=O)c2c(C)cc(=O)oc2c1", "z-score": 1.2}
{"compound": "COc1nc2ccc(C)cc2cc1-c1noc(-c2cccnc2)n1", "z-score": -0.35}
{"compound": "COc1ccc(-n2c(Cn3c(=O)sc4ccccc43)nnc2SCC(=O)N2CCCC2)cc1", "z-score": 0.171}
{"compound": "CCN(CC)S(=O)(=O)c1ccc(N(C)Cc2ccc(C(F)(F)F)cc2)nc1", "z-score": 0.0648}
{"compound": "ON1C2CCCCC2N(O)C1c1c(F)c(F)c(F)c(F)c1F", "note": "(stereo not given)", "z-score": 0.131}
{"compound": "COc1ccc(NC(=O)N(CCC(C)C)C(C)c2ccccn2)c(OC)c1", "note": "(stereo not given)", "z-score": -0.384}
{"compound": "O=C(NNC(=O)c1sc2ccccc2c1Cl)Nc1ccc(Cl)cc1", "z-score": -0.0174}
{"compound": "Cc1cc(C)nc(-n2nc(C)cc2NC(=O)c2cccc(S(=O)(=O)N3CCCCC3)c2)n1", "z-score": -0.447}
{"compound": "Cc1ccc(C(=O)CC(C(=O)O)c2cn(CCC#N)c3ccccc23)cc1", "note": "(stereo not given)", "z-score": -0.137}
{"compound": "Cc1csc(NC(=O)c2ccco2)n1", "z-score": -0.675}
{"compound": "O=C(Nc1cccc(Br)c1)c1ccccc1-c1ccccc1", "z-score": -0.229}
{"compound": "Cc1ccc(C)c(Nc2nc3c(S(=O)(=O)c4ccccc4)nnn3c3ccccc23)c1", "z-score": -0.308}
{"compound": "Cc1nn(Cc2ccccc2)c(C)c1NC(=O)CSc1nc2c(c(C(F)(F)F)n1)CCc1ccccc1-2", "z-score": -0.213}
{"compound": "O=C(NC(=O)N1CCN(c2cccc(Cl)c2)CC1)c1ccccc1", "z-score": 0.282}
{"compound": "Oc1ccc(C=Nc2cccc3ncccc23)c(O)c1", "z-score": 0.192}
{"compound": "COc1ccccc1C/C(N)=N/O", "z-score": -0.139}
{"compound": "COc1ccc(CCNC(=O)CN(c2ccccc2)S(C)(=O)=O)cc1OC", "z-score": 0.0553}
{"compound": "O=C(NCCc1ccncc1)Nc1ccccc1", "z-score": 0.141}
{"compound": "CCNc1nc(NC(C)C)nc(Oc2ccc(/C=N/O)cc2)n1", "z-score": 0.00305}
{"compound": "Cc1ccc(NC(=O)CC2SC3=NCCN3C2=O)cc1", "note": "(stereo not given)", "z-score": 0.0627}
{"compound": "Cc1ccc(C2(C(F)(F)F)NC(=O)N3C(=C2C#N)Nc2ccccc23)cc1", "note": "(stereo not given)", "z-score": 0.32}
{"compound": "O=C(CN(c1ccc(F)cc1)S(=O)(=O)c1ccc2c(c1)OCCO2)NCC1CCCO1", "note": "(stereo not given)", "z-score": -0.0335}
{"compound": "COc1ccc2c(c1)c1nc(SCC(C)C)n(CCO)c(=O)c1n2C", "z-score": -0.0735}
{"compound": "O=C1C=C(NCc2ccco2)C2(CCCCC2)O1", "z-score": -0.278}
{"compound": "Cc1nn(C)c(C(=O)N2CCc3ccccc32)c1Cl", "z-score": 0.211}
{"compound": "COc1cc(NC(=O)Cc2nn(C)c(=O)c3ccccc23)cc(OC)c1OC", "z-score": -0.201}
{"compound": "COc1ccc(C(=O)NCC2OCCc3ccccc32)cc1", "note": "(stereo not given)", "z-score": 0.422}
{"compound": "Cc1ccc(C(=O)CCC(=O)CCC(=O)O)cc1", "z-score": -0.0319}
{"compound": "Cc1cc(C(=O)CSc2n[nH]c(N)n2)c(C)n1-c1cc(F)ccc1F", "z-score": "active: 6.6"}
{"compound": "O=C(NCc1n[nH]c(=S)n1-c1cccc(Cl)c1)c1ccc(S(=O)(=O)N2CCCC2)cc1", "z-score": -0.0232}
{"compound": "O=S(=O)(NCCc1ccccc1)c1ccc(Cl)nc1", "z-score": -0.176}
{"compound": "COc1ccc(/C=N/NC(=O)c2sccc2OCc2ccc(F)cc2)cc1OC", "z-score": -0.163}
{"compound": "CCOC(=O)C1=C(c2ccccc2)OC(N)=C(C#N)C1c1ccc(Br)s1", "note": "(stereo not given)", "z-score": -0.219}
{"compound": "Cc1ccc(Nc2ccc([N+](=O)[O-])nc2[N+](=O)[O-])cc1", "z-score": -0.0765}
{"compound": "Cc1nc(N2CCN(Cc3ccc4c(c3)OCO4)CC2)nc2c1C(=O)CC(c1ccco1)C2", "note": "(stereo not given)", "z-score": -0.971}
{"compound": "COc1cc(C(=O)NCCC(C)C)c([N+](=O)[O-])cc1OC", "z-score": -0.0655}
{"compound": "CCOC(=O)C1=C2SCC(=O)N2C(N)=C(C#N)C1", "z-score": 0.0493}
{"compound": "O=C(Nc1cc(C(=O)N2CCCC2)ccc1N1CCCC1)c1ccccc1F", "z-score": -2.72}
{"compound": "COc1ccccc1CNC(=O)c1ccccc1OCc1ccc(F)cc1", "z-score": -1.16}
{"compound": "CCCS(=O)(=O)n1nc(-c2ccc(OC)cc2)cc1N", "z-score": -0.128}
{"compound": "CC(=O)c1c(C)[nH]c(C(=O)NCCCN2CCCC2)c1C", "z-score": 0.103}
{"compound": "CC(=O)Nc1cc2c(cc1NC(=O)Cn1nc(-c3ccccc3F)ccc1=O)OCCO2", "z-score": -0.0689}
{"compound": "CCc1cc(C(=O)NNC(=S)Nc2ccccc2C)cs1", "z-score": 1.47}
{"compound": "COc1ccccc1OCC(=O)Nc1ccc(S(=O)(=O)NC(C)=O)cc1", "z-score": -0.535}
{"compound": "Cc1c(-c2ccccc2)oc2c(C(=O)OCC(=O)Nc3cccc(F)c3)cccc2c1=O", "z-score": -0.491}
{"compound": "Cc1cc(C)c(S(=O)(=O)N2CCCCC2)c(C)c1N(C)S(=O)(=O)c1ccc(Cl)cc1", "z-score": 0.175}
{"compound": "O=C(Nc1ccccn1)C1CCN(S(=O)(=O)c2cccc3nonc23)CC1", "z-score": 0.0263}
{"compound": "CCOC(=O)CN(C(=O)CSc1nnc(-c2ccncc2)n1CCCN(C)C)c1ccccc1", "z-score": 0.586}
{"compound": "CCN(CC)c1ccc(N2C(=O)/C(=C\\c3cccs3)SC2=S)cc1", "z-score": -0.251}
{"compound": "Cc1ccc(S(=O)(=O)N(C)CC(=O)NC2CCCC2)cc1", "z-score": -0.315}
{"compound": "C=CCn1c(SCC(=O)NCc2ccc3c(c2)OCO3)nc2scc(-c3ccccc3)c2c1=O", "z-score": -0.416}
{"compound": "Cc1ccc(S(=O)(=O)N2CCC(C(=O)N3CCC(C(=O)NCc4cccnc4)CC3)CC2)cc1", "z-score": 0.149}
{"compound": "CC(=O)N1c2c(cc(Br)cc2S(=O)(=O)N2CCN(C(=O)c3ccco3)CC2)CC1C", "note": "(stereo not given)", "z-score": -0.144}
{"compound": "COc1ccc(C(=O)CSc2nc3ccc([N+](=O)[O-])cc3[nH]2)cc1", "z-score": -0.643}
{"compound": "CCC(CC)NC(=O)COC(=O)c1cc(Br)ccc1Cl", "z-score": 0.144}
{"compound": "Cc1ccc(NC(=O)Nc2ccccc2)c(Br)c1", "z-score": 0.0969}
{"compound": "CCN(CC)c1ccc(NC(=O)/C=C/c2cc(Br)ccc2OC)cc1", "z-score": -0.228}
{"compound": "CCN(CC)C(=O)c1sc2[nH]c(=S)n(-c3ccccc3)c(=O)c2c1C", "z-score": -0.496}
{"compound": "COC(=O)C1CCN(C(=O)CCCOc2ccccc2)CC1", "z-score": -0.678}
{"compound": "CCNC(=S)N1CCN(CC(=O)Nc2ccc(Br)cc2)CC1", "z-score": -0.0221}
{"compound": "O=c1[nH]cnc2c1C(c1ccccc1[N+](=O)[O-])c1c(nc[nH]c1=O)O2", "z-score": -0.0633}
{"compound": "O=C(N/N=C/c1cc2ccccc2nc1Cl)/C(=C/c1cccs1)NC(=O)c1ccccc1", "z-score": -0.489}
{"compound": "CC(C)c1cc(C(=O)O)on1", "z-score": -0.474}
{"compound": "C=C(C)COc1ccc(-c2[nH]ncc2-c2ccccc2OC)c(O)c1", "z-score": 0.603}
{"compound": "CCN(CC)S(=O)(=O)c1ccc(C(=O)OCC(=O)Nc2ccc(-c3nc4ccc(C)cc4s3)cc2)cc1", "z-score": -0.0222}
